Data as given in paper PMC12425082.
These are yes or no findings as the source states them, for the method shown. For part of these data: In cells and extracts the contact can be indirect. Some entries that bind do so weakly or less than the wild type. Sequences can lack the tags named with a protein.

Amino acid sequences for entries named in this document (tags omitted).
UniProt Q9Y4G2: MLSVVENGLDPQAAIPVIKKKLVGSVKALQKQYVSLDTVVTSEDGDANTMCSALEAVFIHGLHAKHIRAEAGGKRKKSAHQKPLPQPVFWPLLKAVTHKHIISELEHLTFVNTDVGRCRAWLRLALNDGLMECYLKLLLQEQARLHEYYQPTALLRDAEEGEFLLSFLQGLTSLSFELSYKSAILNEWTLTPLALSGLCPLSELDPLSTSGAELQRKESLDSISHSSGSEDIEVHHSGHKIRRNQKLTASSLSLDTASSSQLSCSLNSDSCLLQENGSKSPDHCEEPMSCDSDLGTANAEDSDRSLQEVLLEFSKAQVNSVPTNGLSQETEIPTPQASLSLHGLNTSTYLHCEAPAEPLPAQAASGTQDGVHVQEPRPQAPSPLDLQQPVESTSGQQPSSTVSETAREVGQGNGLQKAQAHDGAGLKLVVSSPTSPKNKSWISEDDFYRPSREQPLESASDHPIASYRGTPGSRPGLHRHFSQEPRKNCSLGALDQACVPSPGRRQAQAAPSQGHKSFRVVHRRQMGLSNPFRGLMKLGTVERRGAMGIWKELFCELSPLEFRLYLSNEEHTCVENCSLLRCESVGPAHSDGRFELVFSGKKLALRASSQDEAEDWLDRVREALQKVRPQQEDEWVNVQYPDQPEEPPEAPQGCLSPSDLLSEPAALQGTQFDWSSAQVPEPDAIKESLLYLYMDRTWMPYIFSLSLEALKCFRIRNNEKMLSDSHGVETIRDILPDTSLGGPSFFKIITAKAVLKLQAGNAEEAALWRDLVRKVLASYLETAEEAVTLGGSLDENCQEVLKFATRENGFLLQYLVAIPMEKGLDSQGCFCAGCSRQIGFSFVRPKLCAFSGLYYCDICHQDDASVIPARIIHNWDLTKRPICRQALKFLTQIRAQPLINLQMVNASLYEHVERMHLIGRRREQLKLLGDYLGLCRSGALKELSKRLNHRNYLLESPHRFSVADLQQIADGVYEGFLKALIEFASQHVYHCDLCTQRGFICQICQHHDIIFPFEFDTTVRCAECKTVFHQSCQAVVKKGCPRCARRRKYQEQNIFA

T1: GFP-tagged Munc13-4 (UniProt Q70J99)
T1 sequence: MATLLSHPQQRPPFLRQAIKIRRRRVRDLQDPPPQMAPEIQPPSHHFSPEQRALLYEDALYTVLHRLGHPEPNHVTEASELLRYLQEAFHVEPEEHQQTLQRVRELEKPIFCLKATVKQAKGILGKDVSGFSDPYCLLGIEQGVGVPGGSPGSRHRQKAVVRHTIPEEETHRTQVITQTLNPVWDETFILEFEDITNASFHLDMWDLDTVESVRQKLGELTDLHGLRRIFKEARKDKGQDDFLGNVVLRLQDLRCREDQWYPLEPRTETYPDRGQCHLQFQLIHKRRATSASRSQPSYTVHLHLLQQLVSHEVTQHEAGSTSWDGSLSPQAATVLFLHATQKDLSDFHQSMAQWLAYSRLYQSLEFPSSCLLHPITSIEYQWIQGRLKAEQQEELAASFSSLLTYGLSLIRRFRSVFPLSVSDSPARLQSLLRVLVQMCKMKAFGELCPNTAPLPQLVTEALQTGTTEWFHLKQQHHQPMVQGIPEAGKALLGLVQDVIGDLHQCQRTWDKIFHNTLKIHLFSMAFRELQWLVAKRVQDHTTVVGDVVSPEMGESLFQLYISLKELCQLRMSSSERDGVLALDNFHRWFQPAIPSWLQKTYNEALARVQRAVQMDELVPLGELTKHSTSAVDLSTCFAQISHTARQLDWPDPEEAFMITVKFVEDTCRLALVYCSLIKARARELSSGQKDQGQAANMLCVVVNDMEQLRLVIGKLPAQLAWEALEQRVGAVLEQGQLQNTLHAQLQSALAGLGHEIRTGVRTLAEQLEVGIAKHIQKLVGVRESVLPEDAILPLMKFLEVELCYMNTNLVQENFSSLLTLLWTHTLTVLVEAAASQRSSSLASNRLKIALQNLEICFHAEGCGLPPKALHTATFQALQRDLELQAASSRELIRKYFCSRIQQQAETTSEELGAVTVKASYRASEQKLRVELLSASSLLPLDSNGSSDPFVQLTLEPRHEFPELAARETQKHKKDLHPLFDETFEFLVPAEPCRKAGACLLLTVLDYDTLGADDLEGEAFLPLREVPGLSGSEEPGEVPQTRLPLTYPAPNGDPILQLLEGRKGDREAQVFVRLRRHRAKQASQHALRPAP

T2: GFP-tagged Munc13-4, Q70J99
T2 chain: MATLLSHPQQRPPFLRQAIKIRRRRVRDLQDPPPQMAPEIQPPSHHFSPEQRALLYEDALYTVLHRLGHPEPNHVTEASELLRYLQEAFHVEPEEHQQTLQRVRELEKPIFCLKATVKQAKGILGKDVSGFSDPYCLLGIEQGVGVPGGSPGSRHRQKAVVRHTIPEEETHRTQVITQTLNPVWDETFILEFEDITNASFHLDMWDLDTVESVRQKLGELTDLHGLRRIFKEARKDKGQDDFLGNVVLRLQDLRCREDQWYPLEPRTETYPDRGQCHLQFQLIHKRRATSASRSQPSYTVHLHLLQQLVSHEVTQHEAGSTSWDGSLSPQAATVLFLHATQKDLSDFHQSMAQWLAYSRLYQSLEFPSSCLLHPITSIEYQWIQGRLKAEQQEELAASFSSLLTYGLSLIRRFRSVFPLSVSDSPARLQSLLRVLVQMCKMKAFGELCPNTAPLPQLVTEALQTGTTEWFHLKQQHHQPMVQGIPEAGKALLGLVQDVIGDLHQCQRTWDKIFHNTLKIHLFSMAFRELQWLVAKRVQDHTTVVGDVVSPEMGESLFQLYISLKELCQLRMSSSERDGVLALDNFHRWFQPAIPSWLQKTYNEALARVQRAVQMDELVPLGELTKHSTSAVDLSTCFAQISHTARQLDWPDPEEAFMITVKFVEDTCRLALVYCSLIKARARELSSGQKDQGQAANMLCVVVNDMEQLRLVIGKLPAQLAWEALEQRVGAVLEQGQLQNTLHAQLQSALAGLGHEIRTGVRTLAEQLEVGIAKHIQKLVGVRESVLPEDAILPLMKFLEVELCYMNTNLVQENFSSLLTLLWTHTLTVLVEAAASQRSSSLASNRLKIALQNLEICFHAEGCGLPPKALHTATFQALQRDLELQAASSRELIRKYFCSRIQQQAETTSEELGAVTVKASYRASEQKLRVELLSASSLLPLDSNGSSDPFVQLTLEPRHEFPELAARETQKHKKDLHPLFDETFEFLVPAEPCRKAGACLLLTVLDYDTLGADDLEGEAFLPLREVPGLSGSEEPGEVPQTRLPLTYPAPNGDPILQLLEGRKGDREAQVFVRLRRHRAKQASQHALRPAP


Key:
GFP-tagged Munc13-4 = target: T1, GFP-tagged Munc13-4; assay: co-IP; lysates of BON cells expressing GFP or GFP-Munc13-4 precipitated with GFP nanobodies; western blotting of the pull-downs with antibodies to the partners
[1] = target: T2, GFP-tagged Munc13-4, Q70J99; assay: as above; settings: remark: other sources report otherwise
[2] = target: GFP-tagged PLEKHM1 (from HEK293FT, immobilised) (UniProt Q9Y4G2); assay: pull-down; GFP-PLEKHM1 (or GFP) immobilised on GFP nanobody beads, incubated with the indicated concentrations of purified Munc13-4; SDS-PAGE, Imperial blue staining; both purified

Binder	binding [1]	binding (GFP-tagged Munc13-4)	other results
HOPS complex subunit VPS41 (protein, UniProt P49754 1-854) MAEAEEQETGSLEESTDESEEEESEEEPKLKYERLSNGVTEILQKDAASCMTVHDKFLALGTHYGKVYLLDVQGNITQKFDVSPVKINQISLDESGEHMGVCSEDGKVQVFGLYSGEEFHETFDCPIKIIAVHPHFVRSSCKQFVTGGKKLLLFERSWMNRWKSAVLHEGEGNIRSVKWRGHLIAWANNMGVKIFDIISKQRITNVPRDDISLRPDMYPCSLCWKDNVTLIIGWGTSVKVCSVKERHASEMRDLPSRYVEIVSQFETEFYISGLAPLCDQLVVLSYVKEISEKTEREYCARPRLDIIQPLSETCEEISSDALTVRGFQENECRDYHLEYSEGESLFYIVSPRDVVVAKERDQDDHIDWLLEKKKYEEALMAAEISQKNIKRHKILDIGLAYINHLVERGDYDIAARKCQKILGKNAALWEYEVYKFKEIGQLKAISPYLPRGDPVLKPLIYEMILHEFLESDYEGFATLIREWPGDLYNNSVIVQAVRDHLKKDSQNKTLLKTLAELYTYDKNYGNALEIYLTLRHKDVFQLIHKHNLFSSIKDKIVLLMDFDSEKAVDMLLDNEDKISIKKVVEELEDRPELQHVYLHKLFKRDHHKGQRYHEKQISLYAEYDRPNLLPFLRDSTHCPLEKALEICQQRNFVEETVYLLSRMGNSRSALKMIMEELHDVDKAIEFAKEQDDGELWEDLILYSIDKPPFITGLLNNIGTHVDPILLIHRIKEGMEIPNLRDSLVKILQDYNLQILLREGCKKILVADSLSLLKKMHRTQMKGVLVDEENICESCLSPILPSDAAKPFSVVVFHCRHMFHKECLPMPSMNSAAQFCNICSAKNRGPGSAILEMKK		binds	
syntaxin7 (STX7), O15400 1-261 (protein) MSYTPGVGGDPAQLAQRISSNIQKITQCSVEIQRTLNQLGTPQDSPELRQQLQQKQQYTNQLAKETDKYIKEFGSLPTTPSEQRQRKIQKDRLVAEFTTSLTNFQKVQRQAAEREKEFVARVRASSRVSGSFPEDSSKERNLVSWESQTQPQVQVQDEEITEDDLRLIHERESSIRQLEADIMDINEIFKDLGMMIHEQGDVIDSIEANVENAEVHVQQANQQLSRAADYQRKSRKTLCIIILILVIGVAIISLIIWGLNH	binds		
twin-Strep-tagged Munc13-4 (protein, UniProt Q70J99 1-1090) MATLLSHPQQRPPFLRQAIKIRRRRVRDLQDPPPQMAPEIQPPSHHFSPEQRALLYEDALYTVLHRLGHPEPNHVTEASELLRYLQEAFHVEPEEHQQTLQRVRELEKPIFCLKATVKQAKGILGKDVSGFSDPYCLLGIEQGVGVPGGSPGSRHRQKAVVRHTIPEEETHRTQVITQTLNPVWDETFILEFEDITNASFHLDMWDLDTVESVRQKLGELTDLHGLRRIFKEARKDKGQDDFLGNVVLRLQDLRCREDQWYPLEPRTETYPDRGQCHLQFQLIHKRRATSASRSQPSYTVHLHLLQQLVSHEVTQHEAGSTSWDGSLSPQAATVLFLHATQKDLSDFHQSMAQWLAYSRLYQSLEFPSSCLLHPITSIEYQWIQGRLKAEQQEELAASFSSLLTYGLSLIRRFRSVFPLSVSDSPARLQSLLRVLVQMCKMKAFGELCPNTAPLPQLVTEALQTGTTEWFHLKQQHHQPMVQGIPEAGKALLGLVQDVIGDLHQCQRTWDKIFHNTLKIHLFSMAFRELQWLVAKRVQDHTTVVGDVVSPEMGESLFQLYISLKELCQLRMSSSERDGVLALDNFHRWFQPAIPSWLQKTYNEALARVQRAVQMDELVPLGELTKHSTSAVDLSTCFAQISHTARQLDWPDPEEAFMITVKFVEDTCRLALVYCSLIKARARELSSGQKDQGQAANMLCVVVNDMEQLRLVIGKLPAQLAWEALEQRVGAVLEQGQLQNTLHAQLQSALAGLGHEIRTGVRTLAEQLEVGIAKHIQKLVGVRESVLPEDAILPLMKFLEVELCYMNTNLVQENFSSLLTLLWTHTLTVLVEAAASQRSSSLASNRLKIALQNLEICFHAEGCGLPPKALHTATFQALQRDLELQAASSRELIRKYFCSRIQQQAETTSEELGAVTVKASYRASEQKLRVELLSASSLLPLDSNGSSDPFVQLTLEPRHEFPELAARETQKHKKDLHPLFDETFEFLVPAEPCRKAGACLLLTVLDYDTLGADDLEGEAFLPLREVPGLSGSEEPGEVPQTRLPLTYPAPNGDPILQLLEGRKGDREAQVFVRLRRHRAKQASQHALRPAP			binding [2]: binds
YKT6 (protein, UniProt O15498 1-198) MKLYSLSVLYKGEAKVVLLKAAYDVSSFSFFQRSSVQEFMTFTSQLIVERSSKGTRASVKEQDYLCHVYVRNDSLAGVVIADNEYPSRVAFTLLEKVLDEFSKQVDRIDWPVGSPATIHYPALDGHLSRYQNPREADPMTKVQAELDETKIILHNTMESLLERGEKLDDLVSKSEVLGTQSKAFYKTARKQNSCCAIM		no binding	

Continued, in another order:

binding [1]	Binder	binding (GFP-tagged Munc13-4)	other results
binds	vesicle transport through interaction with t-SNAREs homolog (VTI1B), Q9UEU0 1-232 (protein) MASSAASSEHFEKLHEIFRGLHEDLQGVPERLLGTAGTEEKKKLIRDFDEKQQEANETLAEMEEELRYAPLSFRNPMMSKLRNYRKDLAKLHREVRSTPLTATPGGRGDMKYGIYAVENEHMNRLQSQRAMLLQGTESLNRATQSIERSHRIATETDQIGSEIIEELGEQRDQLERTKSRLVNTSENLSKSRKILRSMSRKVTTNKLLLSIIILLELAILGGLVYYKFFRSH		
binds	syntaxin8 (STX8), Q9UNK0 1-236 (protein) MAPDPWFSTYDSTCQIAQEIAEKIQQRNQYERKGEKAPKLTVTIRALLQNLKEKIALLKDLLLRAVSTHQITQLEGDRRQNLLDDLVTRERLLLASFKNEGAEPDLIRSSLMSEEAKRGAPNPWLFEEPEETRGLGFDEIRQQQQKIIQEQDAGLDALSSIISRQKQMGQEIGNELDEQNEIIDDLANLVENTDEKLRNETRRVNMVDRKSASCGMIMVILLLLVAIVVVAVWPTN		
